Laboratory results published in PubChem BioAssay AID652104 (National Center for Advancing Translational Sciences (NCATS), 2013).
The whole screen tested about 410,000 compounds, of which about 7,200 (1.8%) were called active. The shares of active, inactive and inconclusive entries below differ from those in the screen. Calls follow the shape of the dose curve; as a rule, active = well fitted activation curve with a large enough effect; inconclusive = small, poorly fitted or top-dose-only effect, or another doubt; inactive = no such curve, though single readings can be large or run the other way. No potency is given beside an inconclusive call; the fits are too rough.

experiment: qHTS of TDP-43 Inhibitors; conditions: TDP-43 expressing yeast growth rescue, BacTiter-Glo, 24 h; growth rescue (activation): at 46.1 µM (top of the series) unless noted; also: nearly all actives have a fitted effect of over 50% in size; as to growth rescue (activation): % of control where 0% means no effect
Summary of the method: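 Yeast cells expressing TDP-43 under galactose induction are exposed to compounds for 24 hr at 30 deg C. BacTiter-Glo luminescence measures growth, so protective compounds score as activators.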
Potency is read from the fitted curve at half-maximal effect; tags tell the direction and shape of the fitted curve.

Compound	Potency	growth rescue (activation)
Cc1nn2c(-c3ccccn3)ccnc2c1Cl	inconclusive [activator, partial curve]	–
O=C(OCCc1cc2ccccc2c(=O)o1)c1cccs1	inconclusive [activator, single point]	–
O=C(Nc1ccccc1C(F)(F)F)c1cc(-c2ccc(O)cc2)on1	active: 12.6 µM	–
CC(CNC(=O)c1nnc(Cc2cccc(F)c2)o1)c1ccccc1 (stereo not given)	active: 15.8 µM	–
Cc1ccccc1SCC(=O)N1CCN(c2ccc(C(F)(F)F)cn2)CC1	inconclusive [activator, single point]	–
CC1=CC2=NC(=O)/C(=C\c3cccn3CCOc3cccc(C)c3)C(=N)N2O1	inconclusive [activator, single point]	–
Cc1c(C(=O)NCc2ccoc2)oc2ccc3c(c12)C(=O)CC(C)(C)O3	inconclusive [activator, partial curve]	–
COc1ccc(Cl)cc1NC(=O)CCNC(=O)OCc1ccccc1	inconclusive [activator, partial curve]	–
CCN(CC)S(=O)(=O)c1ccc(C(=O)NCc2ccc(C)cc2)cc1	inconclusive [activator, single point]	–
Cc1c(/N=C(\[O-])Nc2ccc(Br)cc2)sn[n+]1C	inconclusive [activator, partial curve]	–
COc1ccc(S(=O)(=O)Nc2noc3ccccc23)cc1	active: 11.2 µM	–
Cc1ccc(S(=O)(=O)NCCC(C)C)cc1[N+](=O)[O-]	inconclusive [activator, partial curve]	–
CC1CCCCN1C(=O)COC(=O)/C=C/c1ccc2ccccc2n1 (stereo not given)	inconclusive [activator, partial curve]	–
Cc1cccc(NC(=O)C2CCCN(S(=O)(=O)c3c(C)[nH]c(=O)[nH]c3=O)C2)c1C (stereo not given)	–	inactive: 6.35%
Oc1c(Br)cc(Br)cc1C=Nc1ccc2c(c1)OCCO2	inconclusive [activator, single point]	–
Cc1ccc(N2C(=O)C(Cl)=C(N3CCCCCC3)C2=O)cc1	inconclusive [activator, partial curve, poor fit]	–
CCOC(=O)C(C)Oc1cccc2c(=O)n(CC(=O)Nc3cccc(OC)c3)ccc12 (stereo not given)	inconclusive [activator, single point]	–
c1coc(-c2nnc3sc(Cc4cccs4)nn23)c1	–	inactive: -5.89%
S=c1[nH]nc(-c2ccco2)n1-c1ccc(Br)cc1	inconclusive [activator, partial curve]	–
COCC(=O)N/N=C/c1ccc(Sc2nc3ccccc3s2)o1	–	inactive: 27.7%
COc1ccccc1C(=O)NCCSc1c(C)[nH]c2ccccc12	active: 31.6 µM	–
Cc1cccc(-n2c(C)nc3c(cnn3-c3ccc(F)cc3)c2=O)c1	inconclusive [activator, single point]	–
CCCCOCCCNC(=O)C[C@@H]1C[C@@]2(C(=O)OC)CC(C)(C)CC=C2N(Cc2ccccc2)C1=O	inconclusive [activator, single point]	–

Compound	Potency	growth rescue (activation)
CCN1CCN(C(=S)c2ccc(SC)cc2)CC1	–	inactive: -22.5%
COc1cc(CN2CCc3ccc(NC(=O)CCc4ccccc4OC)cc3C2)ccc1O	inconclusive [activator, single point]	–
Cc1ccc(NC(=O)c2cn3c4c(ccc(Cl)c4c2=O)OC(C)C3)cc1C (stereo not given)	–	inactive: 8.62%
Cc1ccnc(NS(=O)(=O)c2ccc(N3C(=O)c4c(Cl)c(Cl)c(Cl)c(Cl)c4C3=O)cc2)n1	inconclusive [activator, partial curve]	–
O=[N+]([O-])c1cccnc1NCCNc1ncc(C(F)(F)F)cc1Cl	inconclusive [activator, single point]	–
CCN(C[C@H]1N[C@@](CC)(C(=O)OC)[C@H]2C(=O)N(C)C(=O)[C@@H]12)C(=O)c1ccc(C(C)(C)C)cc1	inconclusive [activator, single point]	–
COc1ccc(NC(C)C(=O)Nc2cccc(S(=O)(=O)N3CCOCC3)c2)cc1OC (stereo not given)	–	inactive: 8.23%
O=c1oc2ccccc2n1CCCOc1ccccc1Cl	active: 15.8 µM	–
COc1cccc(N2CCN(C(=O)CCS(=O)(=O)c3ccc4c(c3)CC(=O)N4C)CC2)c1	–	inactive: 6.79%
O=C(CN1CCOCC1)Nc1ccc2c(c1)CCC2	inconclusive [activator, single point]	–
CC1=C(C(=O)N(C(C)C)C(C)C)CC(CC(=O)NC2CCCC2)C(=O)N1Cc1ccc(F)cc1 (stereo not given)	–	inactive: 14.2%
Cc1csc(NC(=O)CSc2ncnc3c2cnn3-c2ccccc2Cl)n1	inconclusive [activator, single point]	–
COc1ccc(Cl)cc1NC(=O)C(C)N1CCc2ccccc21 (stereo not given)	inconclusive [activator, single point]	–
COc1ccc(/C=N/NC(=O)c2nonc2N)cc1OC	–	inactive: 2.07%
CCOc1ccccc1NC(=O)Cn1c(=O)oc2cc(S(=O)(=O)NCc3ccccc3)ccc21	–	inactive: 11.3%
CN(C)c1ccc(CNC(=O)C2CCCN(S(=O)(=O)c3ccc4c(ccn4C)c3)C2)cc1 (stereo not given)	–	inactive: 0%
COc1ccc(C(=O)Nc2cc(-c3ccccc3)nn2-c2ccccc2)cc1	inconclusive [activator, partial curve]	–
N/C(Cc1ccc([N+](=O)[O-])cc1)=N\OC(=O)c1ccc(Br)o1	inconclusive [activator, partial curve]	–
CCCSCCCNC(=O)C1CCN(C(=O)c2cc3sccc3n2C)CC1	inconclusive [activator, single point]	–
O=NN(CCc1ccncc1)c1ccc(OCc2ccccc2)cc1	inconclusive [activator, single point]	–
Cc1noc(C)c1C(=O)Nc1nc(-c2ccc(F)cc2)cs1	inconclusive [activator, partial curve]	–
O=C(COC(=O)CCC(=O)c1cccs1)NCc1ccc(Cl)cc1	inconclusive [activator, single point]	–
